Source: PubChem BioAssay AID463173 (ICCB-Longwood Screening Facility, Harvard Medical School, 2010)
Hit rate of the full screen: of about 52,000 compounds, about 4,300 (8.3%) were called active. No stated cut-off is given here; in the data, active means survival mostly below about 52% (no sharp cut-off); inactive means mostly above about 56%. The list shows a part of the results.

These compounds were tested on DeltatarO mutant (assay: S. aureus survival, RN4220 and DeltatarO strains – OD600, teichoic acid synthesis inhibitors, primary screen (AID 463173)). Details: S. aureus RN4220 wild type/DeltatarO growth, OD600, 18 h, active compounds read low, screened at 18.75 µg/mL (by protocol).
With `CCc1ccccc1NS(=O)(=O)c1ccc2[nH]cc(C(=O)NC3CCCC3)c(=O)c2c1` the survival was active: 33%. With `O=C(O)CC1=C(c2ccc(F)cc2)CCC1=O` the survival was inactive: 114%. For `Cc1ccc(NC(=O)Cn2nc(C(F)(F)F)c3c2CCC3)cc1C`, the survival was inactive: 83%. In the case of `CC(C)COc1ccc(C(=O)Nc2onc3c2CCCC3)cc1`, the survival is reported as inactive: 103%. In the case of `CCOc1ccc(CCNC(=O)CCn2c(=O)c3cccn3c3ccc(F)cc32)cc1`, the survival is reported as inactive: 50%. With `CC(=O)Nc1cccc(-c2nnc(SCC(=O)c3ccc([N+](=O)[O-])cc3)o2)c1` the survival was inactive: 130%. `CCC1CCCCN1C(=O)COc1ccc(F)cc1` (configuration not stated) was tested, and the survival was inactive: 76%. With `COc1ccc(OC)c(CNC(=O)c2cnc(N(C)C)nc2)c1` the survival was inactive: 71%. With `CCOC(=O)CSc1nc(-c2ccc(OC)cc2)cc(C(F)(F)F)c1C#N` the survival was inactive: 76%. In the case of `O=C(CSc1oc(-c2cccs2)nc1S(=O)(=O)c1ccccc1)Nc1ccc(F)cc1`, the survival is reported as inactive: 55%. `CN(C(=O)CSc1nc2ccc(NC(=O)c3ccccc3)cc2s1)c1ccccc1` was tested, and the survival was inactive: 64%. `Cc1ccc(C2=NN(CCC(=O)NCCc3cccc(C)c3)C(=O)CC2)cc1` was tested, and the survival was inactive: 98%. With `COc1ccc(Cn2c(NCC(C)C)nc3c2c(=O)n(C)c(=O)n3C)cc1` the survival was inactive: 49%. With `O=C(Cn1nc2c(cc1=O)CCCC2)NCc1ccccc1` the survival was inactive: 105%. With `COc1ccc(-n2nc(C(=O)N3CCN(c4cccc(C)c4)C(C)C3)c3c4ccccc4n(C)c3c2=O)cc1Cl` (configuration not stated) the survival was inactive: 90%. In the case of `COc1cccc(-n2c(=O)c3c4c(sc3n(Cc3ccccc3C#N)c2=O)CCCC4)c1`, the survival is reported as inactive: 75%. `Cc1ccccc1-c1noc(-c2ccc(NC3CCCC3)c([N+](=O)[O-])c2)n1` was tested, and the survival was inactive: 66%. In the case of `O=S(=O)(c1ccc2nc(Nc3ccc(Br)cc3F)ccc2c1)N1CCCC1`, the survival is reported as inactive: 117%. In the case of `CCOC(=O)c1ccc2c(c1)C(=O)N(c1ccccc1OC)C2=O`, the survival is reported as inactive: 80%. With `Cc1ccc2oc(C(=O)N(Cc3ccc(N(C)C)cc3)CC3CCCO3)c(C)c2c1` (configuration not stated) the survival was inactive: 93%. With `CCOC(=O)c1c(NC(=O)CSc2cn(CCNC(=O)c3cccc(C(F)(F)F)c3)c3ccccc23)sc2c1CCC2` the survival was inactive: 75%. For `COC(=O)Cn1cc(C2C(C#N)=C(N)OC3=C2C(=O)CC(C)(C)C3)c2ccccc21` (configuration not stated), the survival was inactive: 98%. In the case of `O=C(NCCc1ccccc1)c1ccc2nc(N3CCCCC3)sc2c1`, the survival is reported as inactive: 88%. `CCOc1ccc(NC(=O)c2sc3nc4c(c(-c5ccccc5)c3c2N)C(=O)CC(C)(C)C4)cc1` was tested, and the survival was inactive: 49%. With `Cc1ccc(S(=O)(=O)c2cnc(SCC(=O)Nc3ccc4c(c3)OCCO4)[nH]c2=O)cc1Cl` the survival was inactive: 75%. In the case of `Cc1ccccc1-c1ccnc2[nH]n(-c3ccccc3)c(=O)c12`, the survival is reported as active: 47%. With `O=S(=O)(NCC(c1ccco1)N1CCOCC1)c1ccc(Br)cc1` (configuration not stated) the survival was inactive: 91%. In the case of `Cc1ccccc1NC(=O)c1cn(-c2ccccc2)nc1-c1ccccc1`, the survival is reported as inactive: 81%. `Nc1nonc1-n1nnc(C(=O)N=Nc2c(O)[nH]c3ccc(Br)cc23)c1-c1ccccc1` was tested, and the survival was inactive: 49%. With `COc1ccc(-c2cc(C(=O)Oc3ccc(C)cc3)c3ccccc3n2)cc1` the survival was active: 11%. For `CC(C)Oc1ccc(C(=O)N2CCC(c3nc4ccccc4o3)CC2)cc1`, the survival was inactive: 105%. For `Cc1ccc(NS(=O)(=O)c2ccc(-c3cnc(C4CC4)o3)cc2)cc1N(C)C`, the survival was inactive: 79%. With `CC(=O)Nc1ccc(NC(=O)CSc2nccn2Cc2ccc3c(c2)OCO3)cc1` the survival was inactive: 84%. With `COc1cc(NC(=O)CSc2ncc3c(n2)-c2ccc(Cl)cc2N(Cc2ccccc2)S3(=O)=O)cc(OC)c1` the survival was inactive: 55%. `CC(C)c1ccc(NC(=O)CSC2=Nc3ccccc3C3=NC(CC(=O)NCc4cccs4)C(=O)N23)cc1` (configuration not stated) was tested, and the survival was inactive: 82%. With `CN(C)CCNC(=O)C1CCN(c2ncnc3c2nc2n3CCCCC2)CC1` the survival was inactive: 102%. `O=C1CSC2(C(=O)N(Cc3ccccc3F)c3ccccc32)N1c1cccc(C(F)(F)F)c1` (configuration not stated) was tested, and the survival was inactive: 87%. With `O=C(Cn1ncc2c3ccccc3n(Cc3ccc(Cl)cc3)c2c1=O)NCCC1=CCCCC1` the survival was inactive: 89%. In the case of `C=CCn1c(=O)[nH]c(=O)n(CC=C)c1=O`, the survival is reported as inactive: 77%. For `CCOc1ccccc1CNC(=O)CCc1c(C)nn(-c2ccc(N3CCCCC3)nn2)c1C`, the survival was inactive: 71%. For `CC(NC(=O)C1CCN(S(=O)(=O)c2ccc(F)cc2)CC1)c1ccccc1` (configuration not stated), the survival was inactive: 130%. In the case of `COc1cccc(C(=O)Nc2nc3ccc(S(=O)(=O)N4CCCC4)cc3s2)c1`, the survival is reported as inactive: 79%. For `CC1CCC(N2CC(=O)N(C3CCCCC3)C(c3ccc(Cl)cc3)C2=O)CC1` (configuration not stated), the survival was inactive: 84%. With `O=C(Nc1ccc(Br)cc1)c1cc(-c2cccs2)nc2ccccc12` the survival was inactive: 83%. In the case of `COc1cccc(N2CCN(C(=O)c3cc4c(s3)-c3c(C)cccc3OC4)CC2)c1`, the survival is reported as inactive: 73%. `CCCCn1c(=NC(=O)C(C)(C)Oc2ccc(Cl)cc2)c(C(=O)OCC)cc2c(=O)n3ccccc3nc21` was tested, and the survival was inactive: 60%. In the case of `O=C(/C=C/c1ccccc1)C1=C(O)C(=O)N(CCO)C1c1ccc(F)cc1` (configuration not stated), the survival is reported as inactive: 84%. In the case of `Cc1ccc(OCC(=O)Nc2nonc2-c2ccc(C)c(C)c2)cc1C`, the survival is reported as inactive: 59%. With `Cc1ccc(NC(=O)CN2C(=O)COc3ccc(S(=O)(=O)N4CCCCCC4)cc32)cc1Cl` the survival was inactive: 67%. In the case of `COc1ccc(CNC(=O)c2cc3cc4ccc(C)cc4nc3o2)cc1`, the survival is reported as inactive: 74%. In the case of `O=C(Cc1ccccc1)Nc1c(C(=O)c2ccccc2)oc2ccccc12`, the survival is reported as active: 3%. `Cc1ccc(NC(=O)CSc2nnc(-c3nnn(-c4ccc(F)cc4)c3C)o2)cc1Br` was tested, and the survival was inactive: 47%. For `Cc1nc(-c2cccc(F)c2)sc1CCNC(=O)c1c(F)cccc1Cl`, the survival was inactive: 85%. For `COC(=O)c1ccc(C2c3c(oc4ccc(C)cc4c3=O)C(=O)N2Cc2ccc3c(c2)OCO3)cc1` (configuration not stated), the survival was inactive: 94%. With `O=C(O)C1CC2C=CC1O2` (configuration not stated) the survival was inactive: 99%. In the case of `O=C(O)c1ccccc1C(=O)N1CCC(C(=O)c2ccccc2)CC1`, the survival is reported as inactive: 104%. In the case of `O=C(c1ccccc1)N1CCc2ccccc21`, the survival is reported as inactive: 81%.
